In all, about 45,000 compounds went through this assay and about 200 (0.44%) were called active. Another 7% or so got no clear call; they are omitted. The call rests on the fitted dose curve; in most records, active means well fitted activation curve with a large enough effect; inconclusive means small, poorly fitted or top-dose-only effect; inactive means no such curve, though single readings can be large or run the other way. Some of the results follow.
Test: qHTS of TDP-43 Inhibitors: NCGC Sytravon Library Screen; further: 0% is about no effect; nearly all actives have a fitted effect of over 55% in size
Conditions: yeast TDP-43 toxicity rescue, BacTiter-Glo growth, 24 h; series mostly up to 46.1 µM; growth rescue (activation): at the top concentration
Outline: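 TDP-43-expressing yeast, pregrown in raffinose, seeded at OD600 0.02 in galactose medium with compound for 24 hr at 30 deg C. Growth read by BacTiter-Glo luminescence, so rescue of toxicity appears as activation.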

| SMILES | growth rescue (activation) |
| --- | --- |
| CCOC(=O)CC(NC(=O)Cn1nnc(-c2ccccc2Cl)n1)c1ccc(OC)cc1 (stereo not drawn) | inactive: -1.99% |
| CC1CCCCC1NC(=O)CN(C)S(=O)(=O)c1cccc2cccnc12 (stereo not drawn) | inactive: 4.03% |
| CC1CN(S(=O)(=O)c2cccc(C(=O)Nc3ccc(S(=O)(=O)Nc4ncccn4)cc3)c2)CC(C)O1 (stereo not drawn) | inactive: -8.81% |
| CC(=O)c1ccc(OC2(C)CCN(Cc3cc4ccccc4[nH]3)C2)cc1 (stereo not drawn) | inactive: 9.82% |
| CCOc1ccc(N2CC(C(=O)N3CC(C)OC(C)C3)CC2=O)cc1 (stereo not drawn) | inactive: -7.52% |
| CC1(CCl)N([O-])C2=C(CCCC2)[N+]1=O (stereo not drawn) | inactive: -6.76% |
| O=S1(=O)CCC(NC(=S)Nc2ccc3ccccc3c2)C1 (stereo not drawn) | inactive: 6.66% |
| CC1(c2ccc(OC(F)F)cc2)NC(=O)N(CC(=O)Nc2ccc(S(N)(=O)=O)cc2)C1=O (stereo not drawn) | inactive: -8.83% |
| Cc1nn(-c2ccccc2)c(C)c1/C=N/NC(=O)CSc1nc2ccccc2c(=O)n1-c1ccccc1 | inactive: -1.34% |
| O=[N+]([O-])c1ccc(-c2csc(NN=C3CCCC3)n2)cc1 | inactive: 28.5% |
| NC(=O)CSc1nnc(Cc2ccc3c(c2)OCO3)o1 | inactive: -7.08% |
| Cc1ccc(NC(=O)CN(C)C(=O)c2cn(Cc3ccccc3)nc2-c2cccnc2)cc1 | inactive: 4.23% |
| Cc1ccccc1-c1cnc(C(O)c2ccc(F)cc2)[nH]1 (stereo not drawn) | inactive: 13.4% |
| CC(Sc1nc(C(C)(C)C)cc(-c2ccccc2)c1C#N)C(=O)Nc1ccccc1 (stereo not drawn) | inactive: 5% |
| CCOc1ccc2nc(NC(=O)/C=C/c3ccc4c(c3)OCO4)sc2c1 | inactive: -3.04% |
| Cc1ccnc(NC(=O)CCS(=O)(=O)c2ccccc2)c1 | inactive: 6.65% |
| c1ccc(NNC2=NCCS2)cc1 | inactive: -2.79% |
| Cc1c(C(=O)Nc2ccccc2[N+](=O)[O-])csc1-c1ccccc1 | inactive: 17.1% |
| CCCNC(=O)C1(C)CCN(C(=O)COCc2ccccc2)C1 (stereo not drawn) | inactive: -7.22% |
| COC(=O)c1ccc(CNC(=O)COC(=O)Cc2ccsc2)cc1 | inactive: -1.48% |
| Cc1cc(NC(=O)CCN2C(=O)/C(=C\c3ccccc3Cl)SC2=S)no1 | inactive: -0.162% |
| Cc1ccsc1C(=O)N1CCCC(CO)(Cc2ccccc2F)C1 (stereo not drawn) | inactive: 27.8% |
| Cc1cccc(N2CCN(C(=O)c3ccc(S(=O)(=O)N(C)c4ccccc4)cc3)CC2)c1C | inactive: 4.23% |
| CN(C)S(=O)(=O)c1cccc(C(=O)NCC(=O)NC2CCN(Cc3ccccc3)CC2)c1 | inactive: -12.8% |
| COc1ccc(C(=O)NC(=S)Nc2cc(C)ccn2)cc1[N+](=O)[O-] | inactive: -5.07% |
| CC(C)(C)c1ccc(O)c(N=Cc2cc3c(cc2[N+](=O)[O-])OCO3)c1 | inactive: -2.89% |

| SMILES | growth rescue (activation) |
| --- | --- |
| CSCCC(NC(=O)c1ccc(Cl)cc1)C(=O)OCC(=O)c1ccc[nH]1 (stereo not drawn) | inactive: 27.1% |
| COc1ccc(C(=O)C2CCCN(Cc3cn[nH]c3-c3ccc(F)cc3)C2)cc1OC (stereo not drawn) | inactive: 8.76% |
| O=C(O)/C=C\C(=O)N1CCc2ccccc21 | inactive: 23.7% |
| CN1CCN(CC(=O)Nc2c(C(=O)c3ccccc3)oc3ccccc23)CC1 | inactive: -3.9% |
| COc1ccc(N/C=C(\C#N)c2ccc(OCCCF)cc2)cc1 | inactive: 38.2% |
| CCOc1ccc(S(=O)(=O)NCc2ccc(C)cc2)c2cccnc12 | inactive: 30.4% |
| CC(C)NC(=O)NC(=O)COC(=O)CCCSc1nc2ccccc2s1 | inactive: -0.528% |
| NC(Cc1ccccc1)c1csc(Nc2ccc(C(=O)NCCCO)cn2)n1 (stereo not drawn) | inactive: 5.91% |
| COc1ccc(Cl)cc1NC(=S)N1CCN(c2ncccn2)CC1 | inactive: 23.5% |
| O=C(O)COc1ccccc1/C=N/Nc1ccc(S(=O)(=O)N2CCOCC2)cc1[N+](=O)[O-] | inactive: -2.96% |
| CC(C)c1csc(CN2CCC(CO)(Cc3ccccc3)CC2)n1 | inactive: 12% |
| COC(=O)CSc1nc2c(c(=O)n(C)c(=O)n2C)n1CCCc1ccccc1 | inactive: 1.28% |
| COc1ccc(F)cc1-c1cc(C(=O)NCc2cccc(C(F)(F)F)c2)[nH]n1 | inactive: 22.4% |
| N#CC(C#N)=C(Nc1ccc(F)cc1)SCc1cccc(Br)c1 | inactive: -79.3% |
| Cc1ccc2c(COC(=O)c3ccccc3Br)cc(=O)oc2c1 | inactive: -8.55% |
| Cc1cc(C(=O)COc2ccc3ccc(=O)oc3c2)c(C)n1Cc1cccs1 | inactive: -3.28% |
| CCNC(=O)NC(=O)C(C)Sc1ccc2c(c1)OCCO2 (stereo not drawn) | inactive: 33.1% |
| CC(=O)N1CCN(C(=O)C2(NC(=O)Nc3ccc(C)cc3)CCCCC2)CC1 | inactive: 14.2% |
| CC(/C=C1\SC(=S)N(NC(=O)c2ccccc2C)C1=O)=C\c1ccccc1 | inactive: 5.98% |
| CCN(CC)S(=O)(=O)c1ccc2c(c1)N(CC(=O)Nc1cccc(C#N)c1)C(=O)CO2 | inactive: 2.84% |
| CN(c1ccccc1)S(=O)(=O)c1cccc(NC(=O)C2=NNC(=O)CC2)c1 | inactive: -15.2% |
| CCc1ccc(OCC(=O)N2CCc3ccccc32)cc1 | inactive: 12.2% |
| O=C(CCC1CCCN(C(=O)C2CCCC2)C1)NCc1ccc(F)c(F)c1 (stereo not drawn) | inactive: -0.85% |
| Cc1cc(NC(=O)CCC(=O)N(Cc2ccccc2)C(C(=O)NC2CCCC2)c2ccc(C)o2)no1 (stereo not drawn) | inactive: 17.8% |
| NC(=O)c1ccc(NC(=O)COC(=O)CC2CC3CCC2C3)cc1 (stereo not drawn) | inactive: 11% |
| CCn1nc(C)c(CN2CCC(n3nccc3NC(=O)Cc3ccccc3)CC2)c1C | inactive: 6.89% |

| SMILES | growth rescue (activation) |
| --- | --- |
| CCOC(=O)c1c(CN2CCN(CCO)CC2)n(-c2ccccc2)c2cc(Br)c(O)cc12 | inactive: 2% |
| COc1ccc(C2NCCc3c2[nH]c2ccccc32)cc1CSc1nc2ccccc2s1 (stereo not drawn) | inactive: -2.02% |
| COc1ccc(NC(=O)c2ccc(NC(=O)C3COc4ccccc4O3)cc2)c(OC)c1 (stereo not drawn) | inactive: 7.07% |
| O=C(NCc1ccccc1)c1cc(C2CCCN(S(=O)(=O)c3ccccc3)C2)on1 (stereo not drawn) | inactive: 5.69% |
| COc1cccc(CC(=O)Nc2ccc(S(=O)(=O)N3CCCCC3)cc2)c1 | inactive: 16.5% |
| COc1ccc(CCNC(=O)c2ccc(Br)cc2)cc1 | inactive: -4.1% |
| COc1ccc(CNC(=O)C2(c3ccc(Cl)cc3)CC2)cc1 | inactive: -0.363% |
| COc1ccc(N2C(=O)NC(=O)C2=O)cc1 | inactive: -5.5% |
| O=C(Cc1ccsc1)OCC(=O)c1ccccc1 | inactive: 18.2% |
| O=C(COc1ccccc1[N+](=O)[O-])N/N=C/c1cccs1 | inactive: 18% |
| O=C(c1cc(COc2c(F)cccc2F)on1)N1CCC(c2ccccc2F)C1 (stereo not drawn) | inactive: 13.6% |
| CN(C)c1ccc(CN2CCC(C(=O)NC(c3ccc(F)cc3)c3ccc4ccccc4n3)CC2)cc1 (stereo not drawn) | inactive: 13.7% |
| CCN(CC)c1ccc(C(=O)OCC(=O)Nc2ncccn2)cc1 | inactive: 8.37% |
| O=C1N(c2ccccc2)C[C@@H]2C[C@@H](c3cccc4c3OCO4)N3CCC[C@@]123 | inactive: -17% |
| O=C(NC1CCCC1)c1ccccc1-c1nc2ccccc2[nH]1 | inactive: 19% |
| Cc1ccc(S(C)(=O)=O)cc1C(=O)N1CC(C(N)=O)Oc2ccccc21 (stereo not drawn) | inactive: -6.7% |
| O=c1[nH]c(CN2CCN(c3ccc(F)cc3)CC2)nc2ccccc12 | inactive: 21.9% |
| COc1ccc(C2CC(c3cc(Br)ccc3F)n3nnnc3N2)cc1 (stereo not drawn) | inactive: 33.1% |
| CC(=O)c1c(Cl)nc2cccc3c2c1-c1ccccc1C3=O | inactive: -1.84% |
| CCOC(=O)c1cc[n+](CC(=O)c2ccc(F)cc2)cc1 | inactive: 21.7% |
| O=C(NC(Cc1c[nH]c2ccccc12)C(=O)O)/C(=C\c1ccc2c(c1)OCO2)NC(=O)c1ccccc1 (stereo not drawn) | inactive: 16.7% |
| CCCNS(=O)(=O)c1ccc(CCC(=O)Nc2ccc3c(c2)OCCO3)cc1 | inactive: 13.7% |
| Cc1cccc(C(C(=O)NC2CCCC2)N(C(=O)c2csnn2)C2CCCC2)c1 (stereo not drawn) | inactive: 8.11% |
| COc1ccc(N(C(=O)Cn2nnc3ccccc32)C(C(=O)NC(C)(C)C)c2ccc(OC)c(O)c2)cc1 (stereo not drawn) | inactive: -8.9% |
| CCN(CC)S(=O)(=O)c1ccc(OC)c(NC(=O)c2cccs2)c1 | inactive: 23.6% |
| CCOC(=O)C1(CCOc2ccccc2)CCN(Cc2cc(OC)c3c(c2)OCO3)CC1 | inactive: 4.02% |

| SMILES | growth rescue (activation) |
| --- | --- |
| CC[N+](CC)(CC#Cc1ccccc1)CC#Cc1ccccc1 | inactive: -2.57% |
| CCCOc1ccc(C2c3c(oc4ccccc4c3=O)C(=O)N2c2ccc(C)cn2)cc1OCC (stereo not drawn) | inactive: 7.36% |
| Cn1c(SCC(=O)N2CCOCC2)nnc1-c1ccncc1 | inactive: -3.85% |
| Cc1ccc(O)c(NC(=O)CSc2n[nH]c(C)c2[N+](=O)[O-])c1 | inactive: 1.47% |
| Cc1c(NC(=S)NC(=O)c2cc3ccccc3o2)c(=O)n(-c2ccccc2)n1C | inactive: 5.11% |
| CC1CCCN(C(=O)c2cc3c(=O)n4ccccc4nc3s2)C1 (stereo not drawn) | inactive: 10.1% |
| O=[N+]([O-])c1ccc(-c2ccc(/C=N/Nc3nc(NCc4ccccc4)nc(N4CCOCC4)n3)o2)cc1 | inactive: 15.1% |
| O=C(NC1CCCCCC1)c1ccc(Cl)c(S(=O)(=O)N2CCOCC2)c1 | inactive: 7.18% |
| COc1ccc(NC(=O)c2cc(C3CCCCN3C(=O)c3cc(OC)c(C)c(OC)c3)on2)c(C)c1 (stereo not drawn) | inactive: 10.5% |
| CCc1cc2c(=O)n(CC(=O)NCCc3ccc(OC)c(OC)c3)cnc2s1 | inactive: -8.25% |
| CC(C)[C@H](NC(=O)c1nn(Cc2ccccc2)c(=O)c2ccccc12)C(=O)O | inactive: 14.9% |
| CC(O)(C#CCN1CCOCC1)c1ccccc1 (stereo not drawn) | inactive: 10.1% |
| Cc1cc(OCc2ccc(C(=O)Nc3ccc(C(=O)O)cc3)o2)ccc1Cl | inactive: 10.2% |
| COc1cc2cc(C(=O)N3CCN(c4ccccc4OC)CC3)[nH]c2cc1OC | inactive: 20.7% |
| CCOP(=O)(OCC)C(NC(=O)c1cc([N+](=O)[O-])cc([N+](=O)[O-])c1)C(F)(F)F (stereo not drawn) | inactive: 7.92% |
| O=c1c2ccccc2nnn1CSc1nnc(-c2cccnc2)n1-c1ccccc1F | inactive: 1.77% |
| CC(c1ccco1)N(C(=O)c1cccc(S(=O)(=O)N(C)C)c1)c1ccccn1 (stereo not drawn) | inactive: 3.77% |
| O=C(Nc1sc2c(c1C(=O)NCCO)CCCC2)c1ccco1 | inactive: 23.3% |
| CC(C)(C)c1ccc(S(=O)(=O)CC(O)CSc2nc3c(cc2C#N)CCCC3)cc1 (stereo not drawn) | inactive: 30.4% |
| O=C(NC1CCS(=O)(=O)C1)c1ccc(Br)s1 (stereo not drawn) | inactive: 4.72% |
| Cc1ccc(S(=O)(=O)Nc2cc(C)cn(Cc3ccc(F)cc3)c2=O)cc1 | inactive: 12.8% |
| CC(=O)Nc1ccc(C(=O)OCC(=O)c2ccc(F)cc2)cc1 | inactive: -21.7% |
| CCCCNC(=O)c1ccc(Cn2c(=S)[nH]c3c([nH]c4ccc(OC)cc43)c2=O)cc1 | inactive: 3.28% |
| COc1cccc(/C(O)=C/C(=O)C(=O)Nc2ccc(S(=O)(=O)NC(C)=O)cc2)c1 | inactive: -24% |
| C=CCn1c(SCC(=O)Nc2nncs2)nnc1-c1ccco1 | inactive: -7% |

From PubChem BioAssay AID1347073 (National Center for Advancing Translational Sciences (NCATS), 2019)
